# Experimental data as given in PubChem BioAssay AID504832 (National Center for Advancing Translational Sciences (NCATS), 2011).
# Screen size: about 310,000 compounds; about 18,000 (5.8%) were called active. The shares of active, inactive and inconclusive entries below differ from those in the screen. The call rests on the fitted dose curve; in most records, active means well fitted inhibition curve with a large enough effect; inconclusive means small, poorly fitted or top-dose-only effect, or another doubt; inactive means no such curve, though single readings can be large or run the other way. No potency is given beside an inconclusive call; the fits are too rough.
# Experiment: Primary qHTS for delayed death inhibitors of the malarial parasite plastid, 48 hour incubation
# Conditions: P. falciparum luciferase growth in erythrocytes; series mostly up to 28.7 µM
# Method in brief: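 Read-out is firefly luciferase luminescence from an integrated reporter in P. falciparum, so falling signal marks reduced parasite growth. Infected erythrocytes were at 2% hematocrit and 0.1% parasitemia (final) in Albumax-supplemented RPMI 1640.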
# Potency means the concentration at half of the fitted maximal effect; tags describe the fitted curve by direction and shape.
row,SMILES,Potency
1,COc1cccc2oc(-c3ccco3)cc(=O)c12,"inconclusive [inhibitor, single point]"
2,COc1cccc(NC(C)C(=O)N2CC(C)OC(C)C2)c1 (stereo not given),inactive
3,CC(C)CCNC(=O)c1nn(Cc2ccccc2)c(=O)c2ccccc12,"inconclusive [inhibitor, single point]"
4,CN(/N=C/c1cc(Br)cc(Br)c1O)c1cccc(C(F)(F)F)n1,active: 4.15 µM
5,O=C(CCC1CCCC1)NCc1ccccn1,"inconclusive [inhibitor, single point]"
6,O=C(Nc1ccccc1-c1nnc(SCc2ccccc2Cl)o1)c1ccccc1,"inconclusive [inhibitor, single point]"
7,O=C(CCl)NCc1cc(-c2ccc(Cl)cc2)no1,active: 2.08 µM
8,COc1ccccc1OCCn1cc(/C=N/n2cnnc2)c2ccccc21,"inconclusive [inhibitor, single point]"
9,Cc1ccc(-c2nnn(CC(=O)N(Cc3ccccc3)C(C(=O)NC3CCCC3)c3ccncc3)n2)o1 (stereo not given),"inconclusive [inhibitor, single point]"
10,c1ccc(-c2n[nH]c(-c3ccccc3)c2-c2nc3ccccc3[nH]2)cc1,inactive
11,O=S(=O)(c1cccc(F)c1)N1CCN(C(=S)NCc2ccccc2)CC1,active: 3.7 µM
12,O=C(/C=C/c1ccccc1)Oc1ccc(C(=S)N2CCOCC2)cc1,inactive
13,N#Cc1ncc(Cc2ccccc2)nc1C#N,"inconclusive [inhibitor, single point]"
14,COc1ccc(C(CNC(=O)C(CC(C)C)NS(=O)(=O)c2ccc(C)cc2)N2CCOCC2)cc1 (stereo not given),"inconclusive [inhibitor, partial curve]"
15,Cc1cc(C)cc(Nc2nc3ccccc3c(=O)[nH]2)c1,"inconclusive [inhibitor, full curve, poor fit]"
16,CCCCn1c(NC(=O)c2ccc(Br)o2)c(S(=O)(=O)c2ccccc2)c2nc3ccccc3nc21,"inconclusive [inhibitor, single point]"
17,Cc1cc(C)c2cc(C(=O)N3CCN(c4ncccc4C(F)(F)F)CC3)[nH]c2c1,inactive
18,O=C(Nc1nccs1)c1ccc2c(c1)OCO2,inactive
19,CC(C)CC[n+]1ccn(C2=C([O-])c3ccccc3C(=O)/C2=N\S(=O)(=O)c2ccccc2)c1,"inconclusive [inhibitor, partial curve, poor fit]"
20,CCOc1ccc(CCNC(=O)CN2C(=O)c3cccnc3Oc3ccc(Cl)cc32)cc1,"inconclusive [inhibitor, partial curve, poor fit]"
21,Oc1ccc(/C=N/Nc2ccc(C(F)(F)F)cn2)c(O)c1,"inconclusive [inhibitor, partial curve, poor fit]"
22,c1coc(CSSCc2ccco2)c1,"inconclusive [inhibitor, single point]"
23,O=C(Nc1cc(S(=O)(=O)N2CCCCC2)ccc1N1CCCCC1)c1ccncc1,active: 9.28 µM

row,SMILES,Potency
1,COc1cc(OC)c(/C=N/NC(=O)Cn2nc([N+](=O)[O-])cc2C)c(OC)c1,inactive
2,CCOC(=O)C1=C(COC(=O)COc2ccc(Br)cc2)NC(=O)NC1C (stereo not given),inactive
3,CCc1nc(N2CCN(C(=O)CCl)CC2)c2c3c(sc2n1)CC(C)CC3 (stereo not given),"inconclusive [inhibitor, full curve]"
4,CCN(CC)CCOC(=O)c1cccnc1,"inconclusive [inhibitor, partial curve, poor fit]"
5,COc1ccc(CNC(=O)Cn2nnc(-c3ccc(NC(=O)C4CCCCC4)cc3)n2)cc1,inactive
6,Cc1ccc(C)c(N2CCN(c3ccc([N+](=O)[O-])cn3)CC2)c1,"inconclusive [inhibitor, single point]"
7,CCOc1ccc(NC(=O)CSc2nc3[nH]ncc3c(=O)n2-c2ccccc2OC)cc1,"inconclusive [inhibitor, single point]"
8,CC(C)NC(=O)c1ccc2c(c1)N(Cc1ccccc1)C(=O)C(C)(C)O2,"inconclusive [inhibitor, partial curve, poor fit]"
9,Cc1cc(Cl)ccc1C(=O)C1CCCN(C(=O)c2cnn(C(C)C)c2)C1 (stereo not given),"inconclusive [inhibitor, partial curve, poor fit]"
10,CCCn1nnc(NC(=O)c2ccc(Br)o2)n1,inactive
11,CCOC(=O)c1c(NC(=O)/C=C\C(=O)O)sc(C)c1-c1ccccc1,"inconclusive [inhibitor, partial curve, poor fit]"
12,CC1CCN(c2nc3c(c(=O)n(C)c(=O)n3C)n2Cc2ccccc2)CC1,active: 13.1 µM
13,COc1ccc(OC)c(-c2nn(-c3ccccc3)cc2C(=O)N2CCc3ccccc3C2)c1,active: 10.4 µM
14,CCOc1cc(N2CCOCC2)c(OCC)cc1NC(C)C(=O)N1CCC(C)CC1 (stereo not given),active: 10.4 µM
15,CCOC(=O)C(Cc1ccc(O)cc1)NC(=O)CNC(=O)C1CCCN1C(=O)OC(C)(C)C (stereo not given),inactive
16,Cc1ccc(CNC(=O)c2ccc(N3CCC4(CC3)CC(c3ccccc3)=NO4)c(NC(=O)c3cccc(C)c3)c2)cc1,active: 4.15 µM
17,CN(C(=O)COc1ccc(C(C)(C)C)cc1)C1CCS(=O)(=O)C1 (stereo not given),"inconclusive [inhibitor, single point]"
18,COc1cccc(NC(=O)c2nn(C34CC5CC(CC(C5)C3)C4)cc2[N+](=O)[O-])c1,"inconclusive [inhibitor, partial curve]"
19,COc1ccccc1Nc1nc(NCc2ccco2)c2ccccc2n1,"inconclusive [inhibitor, full curve]"
20,CCOC(=O)CSc1nc2cc(C(=O)N3CCC(C(N)=O)CC3)ccc2c(=O)n1-c1ccccc1,"inconclusive [inhibitor, partial curve, poor fit]"
21,CNS(=O)(=O)c1ccc(NC(=O)Nc2ccc3c(c2)OCO3)cc1,inactive
22,CCOCCn1ccc2c(OCC(=O)Nc3cc(OC)ccc3OC)cccc2c1=O,"inconclusive [inhibitor, single point]"
